According to paper PMC4336329 (PLoS ONE, 2015):
The campaign covered roughly 310,000 compounds. About 14,000 (4.5%) showed an effect of 50% or more. The effect is printed as a negative number. The list shows a part of the results.

Target: human ether-à-go-go-related gene (hERG) potassium channel (human, UniProt Q12809)
Experiment: primary screen, population patch clamp on CHO cells stably expressing hERG
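Further: peak tail current of the secondary pulse compared with the same well before compound.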

Chain of human ether-à-go-go-related gene (hERG) potassium channel (Q12809 whole entry, looked up): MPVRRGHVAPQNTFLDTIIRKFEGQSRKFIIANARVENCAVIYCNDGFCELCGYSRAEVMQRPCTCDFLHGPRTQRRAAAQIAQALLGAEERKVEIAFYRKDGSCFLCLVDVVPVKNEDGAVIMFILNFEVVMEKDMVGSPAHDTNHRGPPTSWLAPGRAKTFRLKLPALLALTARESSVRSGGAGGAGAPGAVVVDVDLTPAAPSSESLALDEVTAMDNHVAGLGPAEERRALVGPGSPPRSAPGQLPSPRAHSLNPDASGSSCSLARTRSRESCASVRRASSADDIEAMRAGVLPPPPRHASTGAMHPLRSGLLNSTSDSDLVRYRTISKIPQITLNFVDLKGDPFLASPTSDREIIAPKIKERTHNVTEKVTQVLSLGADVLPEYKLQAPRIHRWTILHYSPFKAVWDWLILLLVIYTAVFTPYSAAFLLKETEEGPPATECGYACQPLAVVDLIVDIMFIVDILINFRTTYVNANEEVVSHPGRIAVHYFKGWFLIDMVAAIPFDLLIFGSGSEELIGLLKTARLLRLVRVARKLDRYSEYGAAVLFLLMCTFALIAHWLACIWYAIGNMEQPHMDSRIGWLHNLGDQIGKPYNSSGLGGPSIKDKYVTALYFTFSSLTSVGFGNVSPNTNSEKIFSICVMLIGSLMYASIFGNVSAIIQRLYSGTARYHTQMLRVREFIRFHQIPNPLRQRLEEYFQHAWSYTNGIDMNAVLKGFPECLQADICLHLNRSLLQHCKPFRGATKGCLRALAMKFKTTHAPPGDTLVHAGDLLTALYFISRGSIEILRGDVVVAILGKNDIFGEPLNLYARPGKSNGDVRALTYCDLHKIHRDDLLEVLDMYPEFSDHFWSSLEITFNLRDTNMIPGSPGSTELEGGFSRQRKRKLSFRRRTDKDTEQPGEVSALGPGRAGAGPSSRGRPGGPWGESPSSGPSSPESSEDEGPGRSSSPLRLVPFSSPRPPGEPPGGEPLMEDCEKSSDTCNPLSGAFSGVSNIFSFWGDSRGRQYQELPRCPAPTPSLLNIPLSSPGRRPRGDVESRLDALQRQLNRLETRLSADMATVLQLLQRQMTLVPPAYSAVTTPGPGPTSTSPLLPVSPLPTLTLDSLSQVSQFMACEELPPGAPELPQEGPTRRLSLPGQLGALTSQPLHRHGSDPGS

| SMILES | hERG current change (%, negative = inhibition) at 10uM [%] |
| --- | --- |
| Cc1cccc(CSc2nnc([C@@H]3CCCN3C(=O)OC(C)(C)C)o2)c1 | 4.85 |
| Cc1nn(-c2ccccc2)c(N2CCCC2)c1/C=N/NC(=O)c1cc(-c2cccnc2)nc2ccccc12 | -12.2 |
| CC(C)CNC(=O)c1cc2nc3c(c(C(F)(F)F)n2n1)CCc1ccccc1-3 | 3.29 |
| CCN(CC)c1ncc(C)c(=O)[nH]1 | 10.1 |
| CN(CCC#N)C(=O)c1cc2c(s1)-c1ccccc1SC2 | -8.88 |
| Cc1[nH]cnc1C(=O)N/N=C/c1ccc([N+](=O)[O-])s1 | 5.2 |
| CCCn1nnc2sc3c(c2c1=O)CCC(C)C3 (stereo not drawn) | -6.6 |
| O=c1cc(-c2ccc(O)cc2)oc2cc(O[C@@H]3O[C@H](CO)[C@@H](O)[C@H](O)[C@H]3O[C@@H]3OC[C@](O)(CO)[C@H]3O)cc(O)c12 | 12.5 |
| COc1ccc(C(=O)CC(SCC(NC(C)=O)C(=O)O)c2ccc(Cl)cc2)cc1OC (stereo not drawn) | 7.24 |
| O=C(Nc1ccccc1Cl)c1ccc(-c2ccccn2)s1 | 1.03 |
| CC(C)N(C(=O)Cn1cc(SCC(=O)NCc2ccco2)c2ccccc21)C(C)C | -23 |
| CCS(=O)(=O)N1CCCC(C(=O)NCCc2ccc(C)cc2)C1 (stereo not drawn) | -4.48 |
| CCN1CCCC1CNC(=O)c1cc(COc2ccc(C)c(C)c2)on1 (stereo not drawn) | -65.2 |
| Cc1ccc(S(=O)(=O)CCC(=O)OCC(=O)N2CCN(c3ccccc3)CC2)cc1 | -18.1 |
| O=S(=O)(c1cccc(-c2cn3cc(Cl)ccc3n2)c1)N1CCOCC1 | -23.1 |
| C[C@H](NC(=O)CCC(=O)N1C[C@H]2C[C@H](C1)c1cccc(=O)n1C2)c1ccccc1 | 2.4 |
| CC(C)(C)NC(=O)CSc1ncccc1-c1nc2ccccc2[nH]1 | -4.73 |
| COCC(=O)Oc1c(S(=O)(=O)c2ccccc2)c(C)nn1C(C)(C)C | 16.6 |
| Cc1cc(C(=O)CN2C(=O)NC3(CCCCC3)C2=O)c(C)n1C | -10.3 |
| COc1ccc(CN(C)C(=O)c2ccc3c(=O)n4c(nc3c2)CCC4)c(OC)c1 | 9.18 |
| CCCS(=O)(=O)N1CCC(C(=O)NCCN(C)Cc2ccccc2)CC1 | 0.0818 |
| Cl.Nc1nc2nc(SCC(=O)N3CCCc4ccccc43)[nH]c2c(=O)[nH]1 | 8.64 |
| Nc1nc(SCc2ccccc2)ns1 | 3.95 |
| Cc1nn(CC(=O)NCc2ccco2)c(C)c1[N+](=O)[O-] | 9.92 |
| COc1ccc(N=CC2=C(O)CC(C)(C)CC2=O)cc1 | 7.47 |
| Cc1ccc(C(=O)NCc2nnc(SCC(=O)Nc3sc4c(c3C#N)CCCC4)n2C)cc1 | -8.88 |
| CCC(Sc1ccccn1)C(=O)Nc1cccc([N+](=O)[O-])c1 (stereo not drawn) | -38.7 |

| SMILES | hERG current change (%, negative = inhibition) at 10uM [%] |
| --- | --- |
| CC(=O)n1cc([C@H]2C=C(C(=O)N3CCN(Cc4ccccc4)CC3)O[C@@H](OCCCCO)C2)c2ccccc21 | -42.5 |
| CCCn1c(=S)[nH]c2ccccc2c1=O | 5.51 |
| Nc1c(N(Cc2ccco2)C(=O)c2cccc(F)c2)c(=O)[nH]c(=O)n1Cc1ccccc1 | 5.17 |
| Cc1ccc(C(C)C)c(OCC(=O)Nc2ccc3c(c2)nc(CCN2CCCCC2)n3C)c1 | -75.8 |
| O=C(NC1CCCC1)C(c1cccs1)N(Cc1ccco1)C(=O)Cn1nnc(-c2cccs2)n1 (stereo not drawn) | 2.45 |
| N#Cc1cccc(CN2CCC(=O)N([C@H](CO)Cc3ccccc3)CC2)c1 | -10 |
| COc1ccc(C(=O)N/N=C/c2sc(=O)n(Cc3cccc(C(=O)O)c3)c2Cl)cc1 | -1.9 |
| CCOc1ccccc1CN1CCNC(=O)C1CC(=O)NCCc1ccccn1 (stereo not drawn) | 1.42 |
| COC(=O)[C@H](Cc1ccccc1)NC(=O)NCCc1ccccc1F | 6.33 |
| COCCCN1C(=O)C(O)=C(C(=O)c2ccco2)C1c1cccc(Br)c1 (stereo not drawn) | 2.9 |
| O=C1OC(/C(=C\Nc2ccc(F)cc2F)[N+](=O)[O-])c2ccccc21 (stereo not drawn) | 14 |
| CCSC1=C(C#N)C(c2ccccc2Cl)C(C(=O)c2cccs2)C(O)(C(F)(F)F)N1 (stereo not drawn) | 8.8 |
| COc1cccc(C(=O)Oc2c(CN3CCOCC3)cc(Cl)c3cccnc23)c1 | -39 |
| COc1ccc(CCNc2cc(C)nc3c(-c4ccc(Cl)cc4)c(C)nn23)cc1OC | 15.5 |
| CCc1ccc(NC(=O)c2cnn(-c3ccccc3)c2C)cc1 | 2.7 |
| Cc1sc2ncnc(SCC(=O)NC(=O)NCc3ccco3)c2c1C | -7.52 |
| Cc1ccc(C(=O)/C=C2\NCCNC2=O)cc1 | 10.9 |
| O=C(NCCN1CCOCC1)c1cc(-c2ccc(Cl)cc2)on1 | -26.1 |
| O=C(Nc1ccc(Cl)cc1)c1ccc(OCC2CCCO2)cc1 (stereo not drawn) | -7.37 |
| C/C(=N\NC(=O)c1cccc(O)c1)c1cccc(NC(=O)c2ccc(F)cc2)c1 | -8.24 |
| COC(=O)CN1CCN(C(=O)c2ccco2)CC1 | 10 |
| CCCCn1c(N)c(N(CCOC)C(=O)c2ccc(S(=O)(=O)N3CCCCC3)cc2)c(=O)[nH]c1=O | -25.1 |
| CC(=O)c1cccc(NC(=S)N2CCc3ccccc32)c1 | 15.7 |
| N/C(=N\NC(=O)c1ccc(Cl)cc1)c1cnccn1 | 8.81 |
| CCOC(=O)c1cc2[nH]c3ccccc3c2[n+](-c2ccc([N+](=O)[O-])cc2)c1C.[Cl-] | -77.8 |
| CN(C)/C=C(/C(=O)c1ccc(F)cc1)S(=O)(=O)c1ccc(F)cc1 | 7.78 |
| COc1cccc(NC(=O)C(C)N2C(=O)c3ccccc3C2=O)c1 (stereo not drawn) | 0.532 |
